Source: PubChem BioAssay (NCATS)
Several values for one entry are separate records, joined by “and”; a condition that tells them apart may be missing. Equal entries are not always repeated. Inconclusive means that the source gave no clear call. Such entries were picked first, then a sample of the others. For some of these results: Potencies beside an inconclusive call are fits to weak or partial responses and may not hold up. Activity calls are given as the source filed them. Calls come from the whole dose curve; as a rule, active = well fitted curve in the direction sought with a large enough effect; inconclusive = small, poorly fitted or top-dose-only effect, or another doubt; inactive = no such curve, though single readings can be large; an effect the other way counts as inactive or inconclusive.

Experiments:
[1] = tested on: HaCat; test: Cytotoxic Profiling of Annotated Libraries Using Quantitative High-Throughput Screening (AID 1296008); conditions: Five cell lines viability, CellTiter-Glo ATP luminescence, 48-72 h; max response: stronger effect = lower value; note: nearly all actives have a fitted effect of over 60% in size
In short: (§1)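 Cells exposed to compounds for 48 or 72 hr at 37 degrees Celsius. Viability read as ATP-coupled luminescence with CellTiter-Glo after 10 min at room temperature.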

[2] = tested on: MCC-13; test: qHTS assay to identify novel small-molecules to repurpose for Merkel cell carcinoma treatment (AID 1296009); conditions: MCC and control cell lines, CellTiter-Glo viability, 72 h; series mostly up to 46 µM; note: nearly all actives have a fitted effect of over 60% in size
In short: (§2)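 CellTiter-Glo luminescence after 72 hr compound exposure at 37 degree celsius gave cell viability. Libraries NPC and MIPE were run as 8- and 11-point dose responses; RLUs normalized to DMSO (negative) and no-cell (cytotoxicity) controls.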

[3] = tested on: MCC-26; test: as above; conditions: MCC and control cell lines, CellTiter-Glo viability, 72 h; activity change, negative = cytotoxicity: at 46 µM (top of the series)
In short: as §2

[4] = tested on: MKL-1; test: as above; conditions: MCC and control cell lines, CellTiter-Glo viability, 72 h; series mostly up to 46 µM
In short: as §2

[5] = tested on: WaGa; test: as above; conditions: MCC and control cell lines, CellTiter-Glo viability, 72 h; series mostly up to 46 µM
In short: as §2

[6] = tested on: C33A; test: Primary qHTS to identify gynecologic anti-cancer compounds using libraries of approved drugs and bioactive compounds (AID 1345084); conditions: Gynecologic cancer cell panel viability, ATPlite luminescence, 48 h; series mostly up to 57.5 µM; note: nearly all actives have a fitted effect of over 55% in size
In short: (§3)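 Measured: luminescence after ATPlite addition (15 min, RT). Exposure: 48 h, 37 C, 5% CO2.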

[7] = tested on: CAOV3; test: as above; conditions: Gynecologic cancer cell panel viability, ATPlite luminescence, 48 h; series mostly up to 57.5 µM
In short: as §3

[8] = tested on: CASKI; test: as above; conditions: Gynecologic cancer cell panel viability, ATPlite luminescence, 48 h; series mostly up to 57.5 µM
In short: as §3

[9] = tested on: Es-2; test: as above; conditions: Gynecologic cancer cell panel viability, ATPlite luminescence, 48 h; series mostly up to 57.5 µM
In short: as §3

[10] = tested on: Hek293T; test: as above; conditions: Gynecologic cancer cell panel viability, ATPlite luminescence, 48 h, control line for the selectivity index; series mostly up to 57.5 µM
In short: as §3

[11] = tested on: JEG-3; test: as above; conditions: Gynecologic cancer cell panel viability, ATPlite luminescence, 48 h; series mostly up to 57.5 µM
In short: as §3

[12] = tested on: PA-1; test: as above; conditions: Gynecologic cancer cell panel viability, ATPlite luminescence, 48 h; series mostly up to 57.5 µM
In short: as §3

[13] = tested on: SKOV3; test: as above; conditions: Gynecologic cancer cell panel viability, ATPlite luminescence, 48 h; series mostly up to 57.5 µM
In short: as §3

[14] = tested on: KB-3-1; test: Cytotoxic Profiling of Annotated Libraries Using Quantitative High-Throughput Screening (AID 1296008); conditions: Five cell lines viability, CellTiter-Glo ATP luminescence, 48-72 h; max response: stronger effect = lower value; note: nearly all actives have a fitted effect of over 60% in size
In short: as §1

[15] = tested on: NIH3T3; test: as above; conditions: Five cell lines viability, CellTiter-Glo ATP luminescence, 48-72 h; max response: stronger effect = lower value
In short: as §1

[16] = tested on: UISO; test: qHTS assay to identify novel small-molecules to repurpose for Merkel cell carcinoma treatment (AID 1296009); conditions: MCC and control cell lines, CellTiter-Glo viability, 72 h; series mostly up to 46 µM; note: nearly all actives have a fitted effect of over 60% in size
In short: as §2

[17] = tested on: HeLa; test: Primary qHTS to identify gynecologic anti-cancer compounds using libraries of approved drugs and bioactive compounds (AID 1345084); conditions: Gynecologic cancer cell panel viability, ATPlite luminescence, 48 h; series mostly up to 57.5 µM; note: nearly all actives have a fitted effect of over 55% in size
In short: as §3

[18] = tested on: OV90; test: as above; conditions: Gynecologic cancer cell panel viability, ATPlite luminescence, 48 h; series mostly up to 57.5 µM
In short: as §3

[19] = tested on: MKL-2; test: qHTS assay to identify novel small-molecules to repurpose for Merkel cell carcinoma treatment (AID 1296009); conditions: MCC and control cell lines, CellTiter-Glo viability, 72 h; activity change, negative = cytotoxicity: at 46 µM (top of the series); note: nearly all actives have a fitted effect of over 60% in size
In short: as §2
Potency is the fitted concentration of half-maximal effect; tags give direction and shape of the fitted curve.

Row | SMILES | Potency [1] | Potency [2] | Potency [3] | Potency [4] | Potency [5] | Potency [6] | Potency [7] | Potency [8] | Potency [9] | Potency [10] | Potency [11] | Potency [12] | Potency [13] | Potency [14] | Potency [15] | Potency [16] | Potency [17] | Potency [18] | Potency [19]
1 | CC(C)(O)c1cc2nc(-c3cnc(N)nc3)nc(N3CCOCC3)c2s1 | active: 264 nM and active: 1.64 µM | inconclusive: 2.96 µM [inhibitor, partial curve] | inconclusive: 0.935 µM [inhibitor, full curve] | inconclusive: 1.48 µM [inhibitor, full curve] | inconclusive: 0.105 µM [inhibitor, full curve] | active: 3.55 µM | inconclusive: 1.12 µM [cytotoxic, full curve, poor fit] | inconclusive: 1.26 µM [cytotoxic, full curve, poor fit] | inconclusive: 2.82 µM [cytotoxic, full curve] | active: 2 µM | inconclusive: 3.16 µM [cytotoxic, full curve] | active: 8.91 µM | inconclusive: 1.58 µM [cytotoxic, full curve, poor fit] |  |  |  |  |  | 
2 | Oc1cccc(-c2c3nc(c(-c4cccc(O)c4)c4ccc([nH]4)c(-c4cccc(O)c4)c4nc(c(-c5cccc(O)c5)c5ccc2[nH]5)CC4)C=C3)c1 | inconclusive: 29.9 µM [inhibitor, single point] | inconclusive: 21.1 µM [inhibitor, partial curve] |  | inconclusive: 16.8 µM [inhibitor, single point] | inconclusive: 26.6 µM [inhibitor, single point] | inconclusive: 35.5 µM [cytotoxic, single point] |  |  | inconclusive: 39.8 µM [cytotoxic, single point] | inconclusive: 2 µM [cytotoxic, partial curve, poor fit] |  | inconclusive: 39.8 µM [cytotoxic, single point] |  | inconclusive: 8.2 µM [inhibitor, partial curve] and active: 16.4 µM | inconclusive: 33.5 µM [inhibitor, single point] | inconclusive: 18.8 µM [inhibitor, partial curve] | inconclusive: 39.8 µM [cytotoxic, single point] | inconclusive: 14.1 µM [cytotoxic, partial curve, poor fit] | 
3 | O=C1C(Cl)=C(NCCN2CCOCC2)C(=O)c2ncccc21 | inconclusive: 37.2 µM [inhibitor, single point] |  | active: 8.33 µM | active: 1.32 µM |  |  |  |  |  |  |  |  |  |  |  | active: 8.33 µM |  |  | active: 2.96 µM
4 | COC(=O)c1nc(Cl)c(Cl)nc1N | inconclusive: 33.5 µM [inhibitor, single point] | active: 0.944 µM |  |  |  | active: 8.91 µM | inconclusive: 31.6 µM [cytotoxic, partial curve, poor fit] | inconclusive: 2 µM [cytotoxic, full curve, poor fit] | inconclusive: 3.16 µM [cytotoxic, partial curve, poor fit] | active: 14.1 µM | inconclusive: 3.16 µM [cytotoxic, partial curve, poor fit] |  | inconclusive: 14.1 µM [cytotoxic, partial curve] |  | active: 10.6 µM | active: 6.68 µM |  | inconclusive: 39.8 µM [cytotoxic, single point] | 
